Experimental data taken from the supplement of paper PMC10670038.
Counter-ions that a name gives are not always drawn. ± gives the standard deviation of the averaged measurements. In all, about 2,000 compounds were measured (“relative cell viability vs DMSO, compound alone”: median about 1.1, lowest 2% from about 0.29 on). The list shows a part of the results.

tested on: TE10; assay: relative cell viability vs DMSO, compound alone (fraction); TE10 is an esophageal squamous carcinoma line; higher = less cytotoxic; settings: 2 µM; 48 h
Method: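 TE10 ESCC cells (1,000/well, 384-well plates) were treated with Selleck bioactive library compounds at 2 uM alone for 48 h. Viability was read by CellTiter-Glo and expressed relative to DMSO wells. Two technical replicates (A, B).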

SMILES | relative cell viability
OCc1ccc(-c2ccc(-c3ccc(CO)s3)o2)s1 | 0.0807 ± 0.0069
O=c1c(-c2ccc(O)cc2)coc2cc(O)cc(O)c12 [Genistein] | 1.23 ± 0.026
CSc1cccc(Nc2ncc3cc(-c4c(Cl)cccc4Cl)c(=O)n(C)c3n2)c1 | 0.76 ± 0.024
COc1ccc2cccc(CCNC(C)=O)c2c1 [Agomelatine] | 0.866 ± 0.045
C1=N/C2=N/c3ccc(OCCN4CCCC4)c(c3)COC/C=C/COCc3cccc(c3)C(=C1)N2 [Pacritinib (SB1518)] | 0.87 ± 0.0098
COc1cc(C=O)ccc1O [Vanillin] | 1.11 ± 0.027
C#C[C@]1(O)CC[C@H]2[C@@H]3CCc4cc(OC)ccc4[C@H]3CC[C@@]21C [Mestranol] | 1.06 ± 0.043
CC(C)NCC(O)c1ccc(NS(C)(=O)=O)cc1 (stereo not given) [Sotalol] | 1.07 ± 0.013
CC(=O)N1CCN(c2ccc(OCC3COC(Cn4ccnc4)(c4ccc(Cl)cc4Cl)O3)cc2)CC1 (stereo not given) [Ketoconazole] | 1.13 ± 0.024
CN(CCOc1ccc(NS(C)(=O)=O)cc1)CCc1ccc(NS(C)(=O)=O)cc1 [Dofetilide] | 1.055 ± 0.008
Cc1[nH]c(/C=C2\C(=O)Nc3ccccc32)c(C)c1CCC(=O)O [TSU-68 (SU6668, Orantinib)] | 1.28 ± 0.12
CCN(CC)CCCC(C)Nc1c2ccc(Cl)cc2nc2ccc(OC)cc12 (stereo not given) [Quinacrine 2HCl] | 0.953 ± 0.031
O=C(O)P(=O)(O)O [Foscarnet Sodium] | 1.16 ± 0.04
CC(C)(C)NS(=O)(=O)c1cncc(-c2cc(F)c3nc(N)nn3c2)c1 | 1.1 ± 0.056
COc1cc2ncnc(Nc3ccc(Cl)cc3F)c2cc1OC | 0.999 ± 0.16
N#Cc1ccc2[nH]c(O)c(-c3ccc(CN4CCOCC4)cn3)c2c1 | 1.34 ± 0.035
Oc1ccc(Nc2nc(-c3ccc(Cl)cc3)cs2)cc1 | 1.11 ± 0.019
CO[C@H]1C[C@@H]2CC[C@@H](C)[C@@](O)(O2)C(=O)C(=O)N2CCCC[C@H]2C(=O)O[C@H]([C@H](C)C[C@@H]2CC[C@@H](O)[C@H](OC)C2)CC(=O)[C@H](C)/C=C(\C)[C@@H](O)[C@@H](OC)C(=O)[C@H](C)C[C@H](C)/C=C/C=C/C=C/1C [Rapamycin (Sirolimus)] | 0.818 ± 0.026
N[C@@H]1CCCN(c2c(/C=C3\SC(=O)NC3=O)cccc2-c2ccccc2)C1 | 1.03 ± 0.047
CS(=O)(=O)Nc1ccc([N+](=O)[O-])cc1Oc1ccccc1 [Nimesulide] | 1.09 ± 0.016
C=CC(=O)Nc1cccc(Nc2nc(Nc3ccc(NC4CN(CCF)C4)cc3OC)ncc2C(F)(F)F)c1 | 0.912 ± 0.027
CCC1=C[C@@H]2CN(C1)Cc1c([nH]c3ccccc13)[C@@](C(=O)OC)(c1cc3c(cc1OC)N(C)[C@H]1[C@@](O)(C(=O)OC)[C@H](OC(C)=O)[C@]4(CC)C=CCN5CC[C@]31[C@@H]54)C2 [Vinorelbine Tartrate] | 0.917 ± 0.11
CC(C)CN(C[C@@H](O)[C@H](Cc1ccccc1)NC(=O)O[C@H]1CCOC1)S(=O)(=O)c1ccc(N)cc1 [Amprenavir] | 1.019 ± 0.0065
CNC(=C[N+](=O)[O-])NCCSCc1csc(CN(C)C)n1 [Nizatidine] | 1.08 ± 0.056

SMILES | relative cell viability
CC1(C)[C@@H](O[C@H]2O[C@H](C(=O)O)[C@@H](O)[C@H](O)[C@H]2O[C@@H]2O[C@H](C(=O)O)[C@@H](O)[C@H](O)[C@H]2O)CC[C@]2(C)[C@H]3C(=O)C=C4[C@@H]5C[C@@](C)(C(=O)O)CC[C@]5(C)CC[C@@]4(C)[C@]3(C)CC[C@@H]12 [Ammonium Glycyrrhizinate] | 1.13 ± 0.036
COc1cc2nccc(Oc3ccc(NC(=O)Nc4ccc(F)cc4F)c(F)c3)c2cc1OC | 1.17 ± 0.027
C[C@]12C=CC(=O)C=C1CC[C@@H]1[C@@H]2C(=O)C[C@@]2(C)[C@H]1CC[C@]2(O)C(=O)CO [Prednisone] | 0.968 ± 0.037
COC(=O)CC[C@H](NC(=O)[C@H](CC(=O)OC)NC(=O)OCc1ccccc1)C(=O)N[C@H](C(=O)N[C@@H](CC(=O)OC)C(=O)CF)C(C)C | 1.17 ± 0.014
CCOC(=O)CCC(=O)O[C@H]1[C@H](O[C@@H]2[C@@H](C)[C@H](O[C@H]3C[C@@](C)(OC)[C@@H](O)[C@H](C)O3)[C@@H](C)C(=O)O[C@H](CC)[C@@](C)(O)[C@H](O)[C@@H](C)C(=O)[C@H](C)C[C@@]2(C)O)O[C@H](C)C[C@@H]1N(C)C [Erythromycin Ethylsuccinate] | 1.13 ± 0.14
COc1cc(NC(=O)c2ccc(-c3ccc(Cl)cc3)o2)cc(OC)c1 | 1.17 ± 0.013
C[C@@H]1CN(c2c(F)c(N)c3c(=O)c(C(=O)O)cn(C4CC4)c3c2F)C[C@H](C)N1 [Sparfloxacin] | 1.02 ± 0.064
CCNC(=O)c1noc(-c2cc(Cl)c(O)cc2O)c1-c1ccc(OC)cc1 | 0.607 ± 0.044
CCOC(=O)c1ccc(N2NC(=O)C(=Cc3ccc([N+](=O)[O-])o3)C2=O)cc1 | 1.01 ± 0.16
CCn1cc(C(=O)O)c(=O)c2cc(F)c(N3CCN(C)CC3)cc21 [Pefloxacin Mesylate Dihydrate] | 1.03 ± 0.026
CCn1cc(C(=O)O)c(=O)c2cc(F)c(N3CCN(C)CC3)cc21 [Pefloxacin Mesylate] | 1.076 ± 0.0036
CCc1cc(C(N)=S)ccn1 [Ethionamide] | 1.07 ± 0.062
Cn1cc(C2=C(c3ccc(Cl)cc3Cl)C(=O)NC2=O)c2ccccc21 | 1.27 ± 0.039
OCc1ccc(O[C@@H]2O[C@H](CO)[C@@H](O)[C@H](O)[C@H]2O)cc1 [Gastrodin] | 1.12 ± 0.075
O=C(NC(NC(=S)Nc1ccc(F)c([N+](=O)[O-])c1)C(Cl)(Cl)Cl)C(c1ccccc1)c1ccccc1 (stereo not given) | 0.881 ± 0.11
O=C(N/N=C/c1ccc([N+](=O)[O-])o1)c1ccc(O)cc1 [Nifuroxazide] | 1.09 ± 0.072
Cc1cccc(Nc2cc(Cl)nc(SCC(=O)O)n2)c1C | 1.18 ± 0.021
Cc1cc(NC(=O)c2cccc(NC(=O)/C=C/CN(C)C)c2)ccc1Nc1nccc(-c2cccnc2)n1 | 0.708 ± 0.036
Cc1cn([C@@H]2C[C@@H](O)[C@H](CO)O2)c(=O)[nH]c1=O [Telbivudine] | 1.09 ± 0.06
COc1cc2c(cc1NS(=O)(=O)c1ccc(Br)cc1C)n(C)c(=O)n2C | 1.17 ± 0.07
CCOC(=O)NCCCC(=O)NCCc1ccccc1 | 1.1 ± 0.031
CCC[C@H](NC(=O)/C(C#N)=C/c1cccc(Br)n1)c1ccccc1 [Degrasyn (WP1130)] | 0.206 ± 0.019
COC(=O)c1ccc2c(c1)[nH]c1ncnc(NCCCN3CCCCC3)c12 | 0.964 ± 0.03
C[C@H]1[C@H](NC(=O)/C(=N\OC(C)(C)C(=O)O)c2csc(N)n2)C(=O)N1S(=O)(=O)O [Aztreonam] | 1.15 ± 0.059

SMILES | relative cell viability
OC[C@H]1O[C@@H](OCCc2ccc(O)cc2)[C@H](O)[C@@H](O)[C@@H]1O [Salidroside] | 1.01 ± 0.018
CCc1c2c(nc3ccc(OC(=O)N4CCC(N5CCCCC5)CC4)cc13)-c1cc3c(c(=O)n1C2)COC(=O)[C@]3(O)CC [Irinotecan HCl Trihydrate] | 1.2 ± 0.022
CCc1c2c(nc3ccc(OC(=O)N4CCC(N5CCCCC5)CC4)cc13)-c1cc3c(c(=O)n1C2)COC(=O)[C@]3(O)CC [Irinotecan] | 1.26 ± 0.051
COc1cc2nc(N3CCN(C(=O)C4CCCO4)CC3)nc(N)c2cc1OC (stereo not given) [Terazosin HCl] | 0.963 ± 0.024
CN1CCN(c2cccc(Nc3nc4c(-c5ccc(S(C)(=O)=O)cc5)cccn4n3)c2)CC1 | 0.994 ± 0.049
CN[C@@H](C)C(=O)N[C@H](C(=O)N1CCC[C@H]1C(=O)Nc1snnc1-c1ccccc1)C1CCCCC1 | 0.9403 ± 0.0033
CNC(=O)c1nn(C)c2c1C(C)(C)Cc1cnc(Nc3ccc(N4CCN(C)CC4)cc3)nc1-2 | 0.907 ± 0.021
CC(C)(O)CC[C@@H](O)[C@](C)(O)[C@H]1CC[C@@]2(O)C3=CC(=O)[C@@H]4C[C@@H](O)[C@@H](O)C[C@]4(C)[C@H]3CC[C@]12C [20-Hydroxyecdysone] | 1.056 ± 0.0032
CC(Oc1cc(-c2cnn(C3CCNCC3)c2)cnc1N)c1c(Cl)ccc(F)c1Cl [(S)-crizotinib] | 1.16 ± 0.043
FC(F)(F)c1ccc(/C=C/c2nc(COc3ccc(CCCCn4ccnn4)cc3)co2)cc1 [Mubritinib (TAK 165)] | 1.06 ± 0.03
CN(C)CCCOc1nn(Cc2ccccc2)c2ccccc12 [Benzydamine HCl] | 1.11 ± 0.088
O=C1c2c(O)cc(O)cc2OC(c2ccc(O)c(O)c2)C1O (stereo not given) [Taxifolin (Dihydroquercetin)] | 1.08 ± 0.02
OC[C@@H](O)[C@@H](O)[C@H](O)[C@@H](O)CO [Sorbitol] | 1.13 ± 0.019
CC(C)(C)c1cc(C(=O)C(C#N)=NNc2cccc(Cl)c2)no1 | 0.99495 ± 0.00057
CC(=O)OCC(=O)[C@@]1(O)CC[C@H]2[C@@H]3CCC4=CC(=O)CC[C@]4(C)[C@H]3C(=O)C[C@@]21C [Cortisone acetate] | 1.17 ± 0.078
CCCCC(=O)O[C@]1(C(=O)CO)[C@@H](C)C[C@H]2[C@@H]3CCC4=CC(=O)C=C[C@]4(C)[C@@]3(F)[C@@H](O)C[C@@]21C [Betamethasone valerate (Betnovate)] | 0.865 ± 0.078
NC(=O)c1ncn([C@@H]2O[C@H](CO)[C@@H](O)[C@H]2O)c1N [Acadesine] | 1.07 ± 0.041
CC1=C(C(=O)OC2CCCCC2)C(c2ccc([N+](=O)[O-])cc2)C2=C(CC(C)(C)CC2=O)N1 (stereo not given) | 1.15 ± 0.14
C[C@@H]1C(=O)O[C@H]2C[C@@]34[C@H]5C[C@@H](C(C)(C)C)[C@]36[C@@H](OC(=O)[C@@H]6O)O[C@@]4(C(=O)O5)[C@]21O [Ginkgolide A] | 0.972 ± 0.085
CC(c1cc2ccccc2s1)N(O)C(N)=O (stereo not given) [Zileuton] | 1.1 ± 0.065
COc1cc(C)c(/C=C/C(C)=C/C=C/C(C)=C/C(=O)O)c(C)c1C [Acitretin] | 1.16 ± 0.053
CC(C)(F)C[C@H](N[C@@H](c1ccc(-c2ccc(S(C)(=O)=O)cc2)cc1)C(F)(F)F)C(=O)NC1(C#N)CC1 [Odanacatib (MK-0822)] | 0.941 ± 0.12
